From ChEMBL document CHEMBL1201862, “PubChem BioAssay data set” (2004) come the findings set out here.

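Protocol summary: plate cells (96-well), add compound at 5 concentrations, incubate 48 h, interpolate endpoints linearly. Here, GI50 denotes the concentration required for 50% inhibition of growth.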 Activity calls are given as the source filed them. Rule as the data show it: active = GI50 up to about 1.1 µM and inactive = higher.

The experiment deals with NCI-H322M. The experiment in a line: NCI-60 cell line screen, 48 h.
As to `CC(N/N=C(\S)N1CCCC1)c1cccnn1` (configuration not stated), the GI50 was active: 0.982 µM.
The figure for `S=C(S)NCCN1CCNCC1` is inactive: > 100 µM.
The value for `NNC(=O)CCSc1ccccc1` was inactive: > 100 µM; that for `COc1ccc(/C=C2\N=C(SC)N(C)C2=O)cc1` was inactive: > 100 µM; that for `CCNc1ccc2c(c1)C(=O)N(OS(C)(=O)=O)C2=O` was inactive: > 100 µM.
The figure for `Nc1nc(Cl)cc(Oc2ccc(Cl)cc2)n1` is inactive: > 43.9 µM; for `Oc1cc(-c2ccccc2)nc2cc(Cl)ccc12` it is inactive: 8.61 µM.
With `O=C(O)CCc1ccc(-c2ccccc2)[nH]1`, the GI50 was inactive: > 100 µM.
The value for `C=CCN1CN(C2CCCCC2)CSC1=S` was inactive: 8.13 µM; that for `O=C1C(Br)=C(C2=CC(=P(c3ccccc3)(c3ccccc3)c3ccccc3)C=C2)C(=O)C(Br)=C1C1=CC(=P(c2ccccc2)(c2ccccc2)c2ccccc2)C=C1` was inactive: 77.1 µM.
The value for `O=C1CC2C=CC(O)C(C1)C2` (configuration not stated) was inactive: > 100 µM; that for `O=C1NC2c3c(I)sc(I)c3/C(=N\O)C2O1` (configuration not stated) was inactive: > 100 µM; that for `NC(=O)c1ccccc1NC(=O)C(=O)C(C(=O)c1ccc(Cl)c(Cl)c1)C1OC(=O)c2ccccc21` (configuration not stated) was inactive: 36.5 µM.
The value for `Cc1nc(Cc2n[nH]c(C)n2)n[nH]1` was inactive: > 100 µM; that for `O=c1onc2n1-c1cc(Cl)ccc1C(=S)N1CSCC21` (configuration not stated) was inactive: > 100 µM.
For the molecule `Cc1ccc(-c2c(C#N)c(-c3ccccc3)n(NS(=O)(=O)c3ccccc3)c(=O)c2C#N)cc1`, the GI50 is inactive: > 100 µM.
The figure for `CCOC(=O)N(Cc1cccs1)c1cc(OC)c(OC)c(OC)c1` is inactive: > 100 µM.
The figure for `COc1cccc(OC)c1NC(=O)C(=O)Nn1c(NNC(=O)c2ccncc2)nc2ccccc2c1=O` is inactive: > 100 µM; for `Oc1cc(Br)cc2cc(Br)cnc12` it is inactive: 17.3 µM; for `Fc1ccccc1C1SCc2nc3ccccc3n21` (configuration not stated) it is inactive: > 100 µM.
The figure for `O=P1(O)c2ccccc2CCc2ccccc21` is inactive: > 100 µM.
In the case of `Nc1c(O)c(C(=O)O)cc2ccccc12`, the GI50 is inactive: 14.5 µM.
The value for `Ic1cccc(/C=C/CN2CCN(CCOC(c3ccccc3)c3ccccc3)CC2)c1` was inactive: 22 µM; that for `CCCCN(CC)C(=O)C(=O)Cc1nc2ccc(C(=O)c3ccccc3)cc2nc1O` was inactive: > 100 µM; that for `COC(=O)C1=CCS(=O)(=O)C1` was inactive: > 100 µM.
On to `COc1cccc(C2c3cc4c(cc3OC(NNC(N)=O)C2C)OCO4)c1OC` (configuration not stated), for which the GI50 is inactive: 27.5 µM.
Take `CCCCC/C=C1\CCC(CN2CCOCC2)C1=O` (configuration not stated): the GI50 is inactive: 19.1 µM.
The figure for `CO/C(=N\N=C(/c1ccccc1)C(F)(F)F)c1ccncc1` is inactive: > 100 µM.
Turning to `CC(C)(CO)CNc1cc(Cl)nc(N)n1`, the GI50 is inactive: > 100 µM.
The figure for `CSc1c([S+](C)[O-])c2ccccc2n1C` (configuration not stated) is inactive: > 100 µM; for `COc1ccc(C(O)c2ccc3c(c2)OCO3)cc1` (configuration not stated) it is inactive: > 100 µM.
The value for `CCC(C)NC1=C(NC(C)=O)C(=O)c2ccccc2C1=O` (configuration not stated) was inactive: > 75 µM; that for `Cn1c(=O)oc2cc(C3CCC(=O)N3Cc3csc(-c4ccccc4)n3)ccc21` (configuration not stated) was inactive: > 100 µM; that for `Nc1nc(S)nc2snnc12` was inactive: > 100 µM.
`C[C@]12CCC(=O)C(O)=C1CC[C@@H]1C2CC[C@]2(C)NC(=O)CCC12` (some centres not stated): the GI50 was inactive: > 100 µM.
`C/C(=N\NC(N)=S)c1ccc(C)c(C)c1`: the GI50 is inactive: > 100 µM.
The figure for `CC1(O)Oc2ccc3ccccc3c2C=C1C(N)=O` (configuration not stated) is inactive: > 100 µM; for `O=C(C1OC1c1ccc(Br)cc1O)C12CC3CC(CC(C3)C1)C2` (configuration not stated) it is inactive: 91.2 µM.
The figure for `COc1cc(C(SCc2ccccc2)SCc2ccccc2)ccc1O` is inactive: > 10 µM; for `Cc1nc2c(O)cc3c4c([nH]c3c2nc1C)C(=O)CCC4` it is inactive: 2.79 µM.
For `CCOc1ccc(/C=C2\NC(=S)N(/C=C3\C(=O)Oc4ccccc4C3=O)C2=O)cc1`, the GI50 is inactive: 25.2 µM.
The value for `Cc1ccc(NNc2cc(=O)[nH]c(=O)[nH]2)cc1Cl` was inactive: > 100 µM.
The value for `N=C(N)Nc1ccc(CC(N)NCC(=O)O)cc1` (configuration not stated) was inactive: > 25 µM; that for `COC(=O)CCC(NC(=S)N/N=C(\C)c1cnccn1)C(=O)OC` (configuration not stated) was inactive: 42.4 µM.
The value for `CN1C(=O)C(O)CC1c1ccccc1C(F)(F)F` (configuration not stated) was inactive: > 100 µM; that for `O=C(CC1Sc2ccccc2NC1=O)Nc1cccc(Cl)c1` (configuration not stated) was inactive: 95.5 µM; that for `CC(C)n1c2c(c3ccccc3c1=O)C(=O)c1ccccc1-2` was inactive: > 100 µM.
For the molecule `Cc1cc2ncc3c(=O)n(NS(=O)(=O)c4ccc(N)cc4)ccc3n2n1`, the GI50 was inactive: > 100 µM.
The figure for `CS(=O)(=O)Nc1ccc2c(c1)N(S(C)(=O)=O)CC2CCl` (configuration not stated) is inactive: > 100 µM.
For the molecule `Cc1cc(C)c2c(c1)CN1CN2Cc2cc(C)cc(C)c21`, the GI50 was inactive: 31.8 µM.
The value for `CC(Oc1ccccc1Cl)C(=O)NN1C(=O)CC(=O)NC1=S` (configuration not stated) was inactive: > 100 µM; that for `Cn1ccnc1C(O)(c1nccn1C)c1nccn1C` was inactive: > 100 µM; that for `COC(=O)[C@H]1COC(=O)N1` was inactive: > 100 µM.
The figure for `O=C(Nc1cc(Cl)c(Cl)cc1Cl)C(=O)C(C(=O)c1ccc2ccccc2c1)C1OC(=O)c2ccccc21` (configuration not stated) is inactive: 7.73 µM; for `O=C(O)CCCNc1ncc2c(n1)-c1ccccc1OC2` it is inactive: > 100 µM; for `CN1C(=O)CCC2[C@@H]3CC=C4C[C@@H](O)CC[C@]4(C)C3CC[C@@]21C` (some centres not stated) it is inactive: 36.6 µM.
The value for `O=C1Nc2ccc([N+](=O)[O-])cc2/C1=N/Nc1ccc([N+](=O)[O-])cc1` was inactive: 20.6 µM; that for `C/C(=N\N=C(N)N)c1sc(-c2nc(C)c(/C(C)=N/N=C(N)N)s2)nc1C` was inactive: > 100 µM; that for `COc1cc(/C=C2\CCC(CN(C)C)C2=O)ccc1OC(=O)c1ccccc1` (configuration not stated) was inactive: 17.8 µM.
In the case of `CC1CC[P+](c2ccccc2)(c2ccccc2)CC1`, the GI50 was inactive: > 100 µM.
The value for `COc1ccc(OC)c(C2CCc3c(cnc4nc(N)nc(N)c34)C2)c1` (configuration not stated) was inactive: 2.73 µM.
The figure for `CC1(C)Oc2ccc3c(=O)c(-c4ccccc4)c(-c4ccccc4)oc3c2C1C(=O)O` (configuration not stated) is inactive: > 100 µM.
The figure for `CCOC(=O)C(Cc1ccccc1)(Cc1ccc(O)cn1)NC(=O)c1ccccc1` (configuration not stated) is inactive: 24.4 µM; for `CCOc1cc(-c2nc3cc(F)ccc3s2)ccc1O` it is inactive: 15.2 µM.
Take `OC(c1ccc(F)cc1)C(F)(F)c1nc2ccccc2o1` (configuration not stated): the GI50 is inactive: > 100 µM.
As to `O=c1[nH]c(=O)n(C2CC(O)C(CO)O2)c2nc3ccc4cc5ccccc5cc4c3nc12` (configuration not stated), the GI50 was inactive: > 100 µM.
The value for `CC1(COS(=O)(=O)OCC2(C)COS(=O)(=O)OC2)COS(=O)(=O)OC1` was inactive: > 100 µM; that for `N#Cc1cnc(-n2[nH]c3c(c2=O)CCCC3)[nH]c1=O` was inactive: 55 µM.
The value for `COP(=O)(OC)/C(=C/c1c[nH]c2ccccc12)C(=O)O` was inactive: > 100 µM.
On to `COc1ccc(-n2c(N)c(C#N)[nH]c2=O)cc1`, for which the GI50 was inactive: > 10 µM.
In the case of `COc1ccc2c(C)c(Oc3c(Cl)c(Cl)c(O)c(C#N)c3C#N)oc2c1`, the GI50 is inactive: > 100 µM.
The figure for `CCOC(=O)c1nc2ccccc2nc1Nc1ccc(OC)c(OC)c1` is inactive: > 100 µM; for `COc1ccc(/N=C2\C(=N/c3ccc(OC)cc3)N(S(=O)(=O)c3ccccc3)C(=S)N2c2ccccc2)cc1` it is inactive: > 100 µM.
The value for `C/C=C/[C@H](O[Si](C)(C)C(C)(C)C)[C@@H](O)/C=C/C(=O)OCC` was inactive: 29.1 µM.
The figure for `COC12C=C(C)C(CC1)CC2C(=O)O` (configuration not stated) is inactive: > 100 µM.
In the case of `O=C1Nc2c(Cl)cc(Cl)cc2/C1=N/NC(=O)c1ccccc1O`, the GI50 was inactive: 16.3 µM.
For the molecule `CC(C)=CCN1CC(C)C(=O)Nc2ccccc21` (configuration not stated), the GI50 is inactive: > 100 µM.
The figure for `CC(C)=C=CC(C)(C)NS(=O)(=O)NC(C)(C)C=C=C(C)C` is inactive: > 100 µM.
The figure for `CC(=O)OCC1OC(n2c(=S)n(-c3ccccc3)c(=O)c3cc(Br)cc(Br)c32)C(OC(C)=O)C(OC(C)=O)C1OC(C)=O` (configuration not stated) is inactive: > 100 µM.
`O/N=N/c1ccccn1.OCC1OC2OC3C(CO)OC(OC4C(CO)OC(OC5C(CO)OC(OC6C(CO)OC(OC7C(CO)OC(OC1C(O)C2O)C(O)C7O)C(O)C6O)C(O)C5O)C(O)C4O)C(O)C3O` (configuration not stated): the GI50 was inactive: > 100 µM.
The figure for `C[C@@H]1[C@H](c2ccccc2)O[B-]2(c3ccc(Br)cc3)OC(=O)C[N+]12C` (some centres not stated) is inactive: > 100 µM; for `CCN1C[C@]2(C)CC[C@H](OCc3ccccc3)C34C5C[C@@H]6CC[C@](O)(C(C[C@@H]32)C14)C5[C@H]6OCc1ccccc1` (some centres not stated) it is inactive: > 100 µM.
The figure for `CC(=O)OCC1=C(C)C[C@H]([C@@H](COC(C)=O)C2CCC3C4C[C@H]5O[C@]56CC=CC(=O)[C@]6(C)C4CC[C@@]32C)OC1=O` (some centres not stated) is inactive: 1.79 µM; for `CC1OC(=O)N(CCCC=C2SCCCS2)C1=O` (configuration not stated) it is inactive: > 100 µM.
The figure for `COc1ccccc1-c1nc(O)c2ccccc2n1` is inactive: > 100 µM.
For the molecule `C=Cc1nc2c(Cl)ncnc2n1Cc1ccccc1`, the GI50 was inactive: 9.84 µM.
The value for `CCCCCCCCCCCC(=O)c1c(O)cc(C)oc1=O` was inactive: 61.4 µM.
